Some of the results follow.
B1: chr1:154963231:154963232:+_ENSMUSG00000042751_ENSMUST00000043313|mus_mus|motif|central (ssRNA)
RNA: GGGAGUUCUACAGUCCGACGAUCGGCUCUGCCUUCUUUCCUGGAUGUGGCCCUCCGCACUUACGAGUGCUGAGACUGGCGGUAGUGUCCUAUCAGAAGGGAAGUAAACCACAGGAGAGCAUCAAGACUACAAACAAACAAACACAACAGAGGAUUGAGCAUCA
B2: chr14:66974463:66974464:+_ENSMUSG00000022044_ENSMUST00000074523|mus_hu|mus_mus_mus_hu_False|68_88 (ssRNA)
RNA: GGGAGUUCUACAGUCCGACGAUCUUGUAGGACGACUUAUUCAGGGGAUCAGACAAGAAGCAGGAGCAGAACAGAGACACCAGCGGGAGCUCCUUCAUCUUCUCUUUGUAGGCAGCAAGGGUCAUGUUUCUGGGAUCUGGUGGCCAACAGAGGAUUGAGCAUCA
B3: chr16:57506169:57506170:-_ENSG00000125170_ENST00000340099|hu_mus|FALSE|FALSE (ssRNA)
RNA: GGGAGUUCUACAGUCCGACGAUCCUGCCACACAUGUGAACAGUGGUUAUUUACAAGGUCUGUUCCCACAAAUCAGAACCCUAAAGUAUUAAAAAACAGAAACACGCAACAAAAGGUUUGAUGUGAAUAGAAAGAUAGCCCUUCCAACAGAGGAUUGAGCAUCA
B4: chr1:109605286:109605287:-_ENSG00000197780_ENST00000461096|hu_mus|hu_hu_hu_mus_True|78_88 (ssRNA)
RNA: GGGAGUUCUACAGUCCGACGAUCAAGUUUCAGAGUAACAUUCAGUAUACUUAAAUCCAAUUGUAAUCCUUAUUAUAAGCUAAGCAGAAUAAUAAUUUAAUACCGUAAGUGAACUACACACAAAGCCUGAACCGCGAAAAUGGUCAACAGAGGAUUGAGCAUCA
B5: chr6:67234108:67234109:+_ENSMUSG00000036371_ENSMUST00000042990|mus_mus|motif|central (ssRNA)
RNA: GGGAGUUCUACAGUCCGACGAUCCUACCAAUACAUUUCUAAAUACAAAACUGACUAACAUAUUUUGUUACUUCUGUGUAGCGGGAGAAGUUCGUUUUCAAAACAGAUAAAAUUCAGUCUUUAGGUGUGAAUGGUAUGAAUGACCAACAGAGGAUUGAGCAUCA
B6: chr11:69480760:69480761:-_ENSMUSG00000059796_ENSMUST00000163666|mus_hu|motif|central (ssRNA)
RNA: GGGAGUUCUACAGUCCGACGAUCUUUUGGGAGAAGAGCCGGCGCCUGGGGCAAGAGCCUACCCCAAAGAAAAGGGUGUCGGAAAUGUUCACGGUUCCUUCUUUUGCCUCAAAAAGUGACAUUUAUUCAAAGAAAAAAAAUGACCAACAGAGGAUUGAGCAUCA
B7: chr16:13835293:13835294:+_ENSMUSG00000022681_ENSMUST00000136618|mus_hu|motif|central (ssRNA)
RNA: GGGAGUUCUACAGUCCGACGAUCAGAAAACAGUGUGUGAGCUGGAGAUGGGUGUUUUUUUAAAAACAUCAAGGUAGAUCGGAUAUGUUCAACAAAGUGGGGUGGCUCAGCCAGAGGCGAAGUGGAAAGAUUCUCUAGUAUUUGCAACAGAGGAUUGAGCAUCA
B8: 20142796_20142916_1202_CDS_ENSG00000114166_ENST00000263754|human|control|control (ssRNA)
RNA: GGGAGUUCUACAGUCCGACGAUCUCGCAGUCUUCGUUGAGAUGGUGCCUCCAGAUGCCAAUAGUUGAUGCGGUUUAGGAACAUUUUUGCCAACUCAACUAUUGUUUGCCUUUCUUUUGCUGGCAGGUGACUAAAUUUGUACUGCAACAGAGGAUUGAGCAUCA
B9: chr2:217001844:217001845:+_ENSG00000079246_ENST00000392132|hu_hu|hu_hu_hu_mus_False|38_98 (ssRNA)
RNA: GGGAGUUCUACAGUCCGACGAUCACCAACUUGAGGAUUAGCUCUUUUGUCAUAAGCAUAUCGGACGAUGGCGACCAUGUUUAACUCAUCCAAAGCAUGAAUCAGGGAGGAAAGGGCAACAGCUGCCGCCUCAUCAUCCUUUGCCAACAGAGGAUUGAGCAUCA
B10: chr5:31101443:31101444:+_ENSMUSG00000029168_ENSMUST00000114729|mus_mus|motif|central (ssRNA)
RNA: GGGAGUUCUACAGUCCGACGAUCUGGUUUUUGGGUCAAUAUAAGAGAUGCCAUUGUCACGGCAAUGGCUUGACAAGCAACCGGCUGUGGACUCCUAGCACUACACAUACACACACGCACACACACACUGUAGCACAAUUUUCUCAACAGAGGAUUGAGCAUCA
B11: chr3:33863462:33863463:+_ENSG00000170248_ENST00000307296|hu_hu|motif|central (ssRNA)
RNA: GGGAGUUCUACAGUCCGACGAUCUGCAAUUUGGCUAGCUAAGGCUGCACAAUUGAACAACACACAGCUCUUUUCAUAUCCGGAGCUUGCAAGAGCCAGUUUUACAGAGCCUCCAAAAAGUGAACCUUUAUCGAAAGCAUCCUUCAACAGAGGAUUGAGCAUCA
B12: chr3:148802587:148802588:-_ENSG00000071794_ENST00000310053|hu_mus|hu_hu_hu_mus_False|28_108 (ssRNA)
RNA: GGGAGUUCUACAGUCCGACGAUCUCCAACCACAUGACCUCUCAUAGUUCCAAAUAAAACCAAAUCUUGCUCUUCAUCACUCGUUAGGAAGUCAUCUGGAGGAAUAACAUCUUGGAAUUCAAAAUGUGGCAAGAAAGUUGAGUACAACAGAGGAUUGAGCAUCA
B13: chr17:66251843:66251844:+_ENSG00000196704_ENST00000359783|hu_hu|FALSE|FALSE (ssRNA)
RNA: GGGAGUUCUACAGUCCGACGAUCAAAUAUGUGUCCGAUCUCAUGGGUUAAAGUCUUACAGGAUCGAAGUAGUAAAACACUAGUUAUUUCUGGAAUAUAAUAGUUGUCGAAAAUUGAAUAGUCACUUGAAGAUGUUUUCUUGAGCAACAGAGGAUUGAGCAUCA
B14: chr8:95844298:95844299:+_ENSG00000164941_ENST00000520526|hu_hu|motif|central (ssRNA)
RNA: GGGAGUUCUACAGUCCGACGAUCCUAGAGUUCUCAUCGUAUGGACAUAAAGAUCCUUGUUUAAUUUUAGGGCUGCUUCGGGUACCAAAAUAGAAUCAGCAGCUUGUUCUUUGAGCACUUUCAAAAUGUUUUCUGUUAGCUCUUCAACAGAGGAUUGAGCAUCA

These binders were tested against T1, UNK ZnF1-3 (human, UniProt Q9C0B0 31-174) (assay: nsRBNS (natural sequence RNA bind-n-seq); RBNS binding buffer (assumed for nsRBNS): 25 mM Tris pH 7.5, 150 mM KCl, 3 mM MgCl2, 0.01% Triton X-100, 500 ug/ml BSA, 20 U/ml SUPERase-In, 4 C; UNK is unkempt and MSI1 is Musashi-1; names of the RNAs are library labels; protein concentration not given here; high values mean tight binding).
T1 sequence: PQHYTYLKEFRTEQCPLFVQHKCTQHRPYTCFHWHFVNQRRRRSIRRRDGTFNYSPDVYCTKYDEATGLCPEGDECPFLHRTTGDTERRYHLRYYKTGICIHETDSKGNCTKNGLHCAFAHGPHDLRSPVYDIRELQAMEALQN

Point of comparison: B4, binding signal 0.984 enrichment R. Against it:
- B1 — higher, 1.29 enrichment R
- B2 — higher, 1.95 enrichment R
- B3 — higher, 2.26 enrichment R
- B5 — higher, 1.15 enrichment R
- B6 — higher, 1.25 enrichment R
- B7 — higher, 2.29 enrichment R
- B8 — lower, 0.569 enrichment R
- B9 — higher, 1.8 enrichment R
- B10 — higher, 1.21 enrichment R
- B11 — higher, 1.01 enrichment R
- B12 — higher, 1.31 enrichment R
- B13 — higher, 1.41 enrichment R
- B14 — lower, 0.856 enrichment R
